± gives the standard deviation of the averaged measurements. Some of the results follow.

The assay concerns PfAP2-LT AP2 domain (GST-tagged). Kind of assay: gcPBM binding intensity (ln(normalized median fluorescence intensity)); higher = stronger DNA binding. The essentials:
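Binding intensity values are the highest Masliner-normalised natural-log median intensity among replicate spots of either probe orientation. The binding step lasted 1 h in 1× PBS with 1% milk, 0.2 mg/ml BSA, 0.5% salmon testes DNA and 0.03% Triton X-100, using GST-tagged P. falciparum DNA-binding domains expressed in E. coli on an Agilent 4 × 180k array of primer-extended double-stranded 36-bp intergenic genomic probes plus negative controls. Alexa488 anti-GST antibody and a 488 nm scan detected bound protein.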
On to “TTACCCATTCCCTTTACATGCAATTTGTATTAATAA [TGCATGCA_site412]”, for which the “gcPBM binding intensity (ln)” value worked out at 8.79 ± 0.43.
For “GTACGTTAGATATATACACACATACATAATAAAGAA [CACACA_site7327]” the value was 9.28 ± 0.5; for “TTAATTCTACTTATTACACACATATTAAGCAAAAAT [CACACA_site4921]”, 8.7 ± 0.41; for “TTGTCATTATTATATTGTACAATAAGTATTAAAGAA [XGTACX_site1205]”, 8.62 ± 0.38.
For “TATATATATTCTTTGTGTACTCATATAAGGGTAGAA [XGTACX_site8121]” the value was 8.59 ± 0.38; for “AATCAATATTATATATGTACTTATTTTCACTTTTGC [XGTACX_site1775]”, 8.92 ± 0.4; for “TTTTTAGAAAAGGTTATAAAAAATTAATTGAAAAAA [GTGCAC_negctrl_site289]”, 8.05 ± 0.47.
For “AGTTCAGAATTGAATAGTACATAAATATAACAAAAT [XGTACX_site650]” the value was 8.97 ± 0.49.
Regarding “AAGCGAATCTATATCACACACAAAAAAATCAGACTA [CACACA_site7072]”, the “gcPBM binding intensity (ln)” value is 9.14 ± 0.38.
For “TATGAACATATATATTGTACAAAATTATAATTTCAA [XGTACX_site6406]” the value was 8.62 ± 0.39.
For “AACTGATATTAATTCTGTACCTATACGTTATATGTT [XGTACX_site1003]” the value was 9.06 ± 0.34; for “ACCCAAAATATATTCACACAAAAAATATTAAAAATA [CACACA_site5433]”, 8.73 ± 0.47.
For “TTGCATCTATTTTTGAGTACACAATGAGAATAATTA [XGTACX_site7171]” the value was 8.41 ± 0.26; for “TTTGAAAAAAAATATTGTACACGTGAATAAAGTATT [XGTACX_site644]”, 8.74 ± 0.36; for “AAAAATAAATATACATGTACATAATAATAATATATA [XGTACX_site8359]”, 9.06 ± 0.62.
As to “TATATATATATATATATATATATATATATAATTTGA [XGTACX_negctrl_site3]”, the “gcPBM binding intensity (ln)” value is 9.62 ± 0.16.
For “AAAAAAAAAAGACACACACACACATACACATACATA [CACACA_site7362]” the value was 9.97 ± 0.071; for “TTAAAAAAGTAATTAACACACAATAATGTAATGCAT [CACACA_site4176]”, 8.89 ± 0.4; for “TTATTATATATGTTCACATAAATACATAAATATATA [GTGCAC_negctrl_site529]”, 8.56 ± 0.33.
For the sequence “TTTATTTATATAATTACACACATATATACACAAATG [CACACA_site8903]”, the “gcPBM binding intensity (ln)” value came out at 8.96 ± 0.38.
“TATTTAAATTAATATTGTACATATATTTATAATATA [XGTACX_site6109]”: the “gcPBM binding intensity (ln)” value was determined as 8.35 ± 0.46.
Turning to “AAATATATTATATATGCATGCGCCAAGATTTATATA [TGCATGCA_site770]”, the “gcPBM binding intensity (ln)” value turned out to be 8.82 ± 0.3.
For “TAATATATATAACAAGTGCAAAAAAATATAGATATT [GTGCAC_site9625]” the value was 8.93 ± 0.48; for “GAGAACATTGATACACGTACATAAGTTATAAGTATT [XGTACX_site7665]”, 9.03 ± 0.45; for “AAGCATCCTACTGATTGTACATATATATATATATAT [XGTACX_site2150]”, 9.75 ± 0.35.
For “AATAAACAAATAAATAAATAAACAGATAAATAAATC [CACACA_negctrl_site920]” the value was 8.98 ± 0.45; for “TTAGGTTATAAATACACACACAAAAGAAAAAAAAAA [CACACA_site5625]”, 9.23 ± 0.55.
In the case of TATAAATTTATACCAGTGCATTTTGAAATATATATA, the “gcPBM binding intensity (ln)” value turned out to be 8.54 ± 0.48.
On to “TGGAACCATAAAAAGTGTACACATATAAAAAATATG [XGTACX_site96]”, for which the “gcPBM binding intensity (ln)” value was 8.95 ± 0.57.
For “ATAATATGAGTCCCACAAAATAGACCATACGAATAT [CACACA_negctrl_site50]” the value was 8.95 ± 0.48; for “AGCTAAAATATTTTTGCACACGATTTTTTTTTTTTT [CACACA_site1140]”, 8.91 ± 0.42.
For “TATTTTATTTTCCGAAGTACAAAAGCAAAAAAAAAC [XGTACX_site103]” the value was 8.44 ± 0.48.
“TATATTTATATAATATGTACATATTTTTTAATATTT [XGTACX_site3834]”: the “gcPBM binding intensity (ln)” value amounted to 8.62 ± 0.4.
In the case of “TATATATTTTATATATGTACATATTTATATGTTTCT [XGTACX_site1818]”, the “gcPBM binding intensity (ln)” value amounted to 8.87 ± 0.48.
As to “TTTTTTTTTTTTTGAACACACATTATTAACTTTTAT [CACACA_site6281]”, the “gcPBM binding intensity (ln)” value was 8.72 ± 0.46.
Consider “CGCGAACATACATACACACACATATATATATATGTA [CACACA_site205]”, for which the “gcPBM binding intensity (ln)” value came out at 9.53 ± 0.43.
Consider “AAAAAAAAGTTATATACACACATATAAATATAAATA [CACACA_site6683]”, for which the “gcPBM binding intensity (ln)” value turned out to be 8.92 ± 0.42.
For “CATGTAAAATATTAAAGTACATGATTATATATATAT [XGTACX_site7486]” the value was 9.13 ± 0.22; for “AAAAATATTAAAAGGCGTACAATACCTGTATGCAAC [XGTACX_site6069]”, 8.81 ± 0.44; for “CGGACATACTAACGGACACACGTAAGAAAAAAAAAG [CACACA_site4504]”, 9.05 ± 0.64.
For “ATGCACGGAAAAATATGTACTTAATTTCAATAATAT [XGTACX_site8311]” the value was 8.79 ± 0.45; for “TATATGTCCATATTTCCACACACATATTATTTTTAT [CACACA_site9266]”, 9.33 ± 0.41; for “AGAGAGAACGGTATAACATGCGATAAATTTTAGAAG [TGCATGCA_site357]”, 8.97 ± 0.58.
In the case of “TTTTTTCAATAAATAATCGTATATTGAATAATAATA [CACACA_negctrl_site822]”, the “gcPBM binding intensity (ln)” value came out at 8.07 ± 0.37.
For “TATTAATTTTTCCTTTTTTTTTTACCCCTTTGTACA [CACACA_negctrl_site947]” the value was 8.53 ± 0.63; for “ATATATTATATTATATGTACTTAAAAAAGTGCAAAG [XGTACX_site318]”, 8.55 ± 0.47.
For “TATATTCAATTTTTGGTGCGTAAATTAATACAAACA [GTGCAC_site9764]” the value was 8.43 ± 0.39; for “AAATAATACATTCGTACTACACATATATATTAAATA [XGTACX_site7806]”, 8.79 ± 0.42.
“AATATATACATATATACACACACATATATATATATA [CACACA_site8907]”: the “gcPBM binding intensity (ln)” value was found to be 9.77 ± 0.014.
As to “TAAAATGTTATAAGAACATGCAATTCCTTTTATTAT [TGCATGCA_site408]”, the “gcPBM binding intensity (ln)” value came to 8.4 ± 0.44.
For “ATTTTAATTTTGTATACACACATTTGAATTATTAAT [CACACA_site3528]” the value was 9.05 ± 0.45.
For “ATATATTATATATGCGCACACACGAATTTTTTTTTT [CACACA_site2393]” the value was 9.31 ± 0.4; for “ATTAAAGTTATAAATTCACACATGTAAATGTATTTA [CACACA_site5279]”, 8.67 ± 0.33; for “GATAAATATTTAATATGTACATATATTATATATATA [XGTACX_site117]”, 8.71 ± 0.41.
Take “GTTATATATGATGGAAGCACTTGGAAGAGGGAAATA [CACACA_negctrl_site1831]”: the “gcPBM binding intensity (ln)” value was determined as 8.79 ± 0.46.
On to “AAAAATAAAAAAATAAAAAATAAAAAAATAAAAAAT [CACACA_negctrl_site1425]”, for which the “gcPBM binding intensity (ln)” value is 8.72 ± 0.54.
For “TATATACACACCGTGTGTACATATACATTAACTGAA [XGTACX_site7120]” the value was 9.61 ± 0.23; for “TATATATACATACGTACACACAAATATTAAAATATA [CACACA_site1951]”, 8.99 ± 0.45; for “TCAAAATTGCTTTGTTGTACTAATAAAATTTATTAC [XGTACX_site1121]”, 8.61 ± 0.35.
For “TATCTGTAAACATATTCACACACATAAATTCGCATA [CACACA_site8557]”, the “gcPBM binding intensity (ln)” value was 9.28 ± 0.33.
For “TATATATATATAATATGTACATATATACATGCCTTG [XGTACX_site2791]” the value was 9.09 ± 0.3; for “TACACTAATGACAGTTGTACTTTTATTCGATAGAAT [XGTACX_site738]”, 8.64 ± 0.49.
For the sequence “TCGAAAATGACGAATGGTACAGTATGTATAAAAATA [XGTACX_site1258]”, the “gcPBM binding intensity (ln)” value turned out to be 8.87 ± 0.53.
For “ACTTTTTTTTTGTGTGTGCACTCGATTATATACATA [GTGCAC_site9846]” the value was 9.57 ± 0.46; for “ATGGCATAAATATATGCACACACAAAAAAAAAAAAA [CACACA_site7902]”, 9.29 ± 0.51.
For “AAAAAGAAAAAGAGCACACAAAAATATTTAACCTTT [CACACA_site2747]” the value was 8.99 ± 0.51; for “TTTCTTTTTTTTTGAAGTACATAAAAATATAAAAAA [XGTACX_site311]”, 7.96 ± 0.33; for “ATATATATATGTATGTATATATATATATATATGTTT [CACACA_negctrl_site248]”, 9.08 ± 0.34.
As for “AATATTATAAAATATTGTACTTAAAAAATTATTAAA [XGTACX_site2469]”, the “gcPBM binding intensity (ln)” value is 8.37 ± 0.49.
For “TAAATTTTTTCTTTTTGTACATATTTTAAAAATGTT [XGTACX_site7526]” the value was 8.54 ± 0.57; for “TTTTATTCCGTTTCAAAATAAGAAAAAAAAAAAAAT [CACACA_negctrl_site1199]”, 8.22 ± 0.43; for “TACTTCTCATTTGTTGTTGTATTTTAGGCATACCCT [XGTACX_negctrl_site385]”, 8.88 ± 0.59.
Regarding “TAAATATAATAAAAGTGTACTTACACTTACATATAA [XGTACX_site1206]”, the “gcPBM binding intensity (ln)” value was found to be 8.55 ± 0.57.
Regarding “TTTCACACTATTTCATGTACACATAAAATTATATAT [XGTACX_site8692]”, the “gcPBM binding intensity (ln)” value was 8.83 ± 0.42.
For “AACAGATAAAAGGGTACACACATATATACATGTACA [CACACA_site225]”, the “gcPBM binding intensity (ln)” value is 9.23 ± 0.44.
Take “TTGTATATATTTCCTTGTACGTAATAATTCTTATTG [XGTACX_site3938]”: the “gcPBM binding intensity (ln)” value is 8.82 ± 0.38.
For “ATATAATAAGGTTAAGCACACATATTACATATATAA [CACACA_site9110]” the value was 8.93 ± 0.47; for “AAGGATAATAGGTACACATGCAATATTCATATATAC [TGCATGCA_site523]”, 9.13 ± 0.3.
For “CTTATATATACGTGCACACATATATATAAGATATAT [CACACA_site1752]” the value was 9.04 ± 0.29.
For the sequence “ATTTAAAAAAAAAAAAATAAATAACTTGAAAAACAA [GTGCAC_negctrl_site318]”, the “gcPBM binding intensity (ln)” value worked out at 8.3 ± 0.4.
For “AAAAATATAAATGACACACACTTAAAAACAAAGAAA [CACACA_site4540]” the value was 9.28 ± 0.45; for “ACGTATATTTTTACATGTACATATGTAAAAAATTTT [XGTACX_site4587]”, 8.7 ± 0.32; for “TGTTTTTCATAGTGCACACATAACCAAAAATAGTAT [CACACA_site3150]”, 8.97 ± 0.34.
For “AAATAATATATATACACACACACATATATATATACA [CACACA_site554]” the value was 9.71 ± 0.13; for “TTATGATAATTTTGCACACACTTAGGAAAAATTATG [CACACA_site4949]”, 8.99 ± 0.4; for AAATACTGTACAAAGGTGCATAAAAAGTGGGGCATA, 9.13 ± 0.48.
For “TCAAAAGAAATAAAAACATGCATAAAAGTAAAAATA [TGCATGCA_site832]” the value was 8.89 ± 0.45.
Take “AATAATGAAAAATCAAATAACCTAAATTACAACTGT [XGTACX_negctrl_site65]”: the “gcPBM binding intensity (ln)” value was found to be 8.82 ± 0.41.
